Among all 110,000 compounds or so, about 230 (0.21%) showed an effect of 50% or more. This is one part of the list.
The compounds below were run against DPAP1 (Plasmodium falciparum, UniProt Q8IIJ9) (assay: primary screen, percent inhibition; read by cleavage of a fluorogenic dipeptide substrate; higher = more effect of the substance).
Set-up: species or system P. falciparum D10 trophozoite lysates; single well
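Further: 30 min substrate incubation versus DMSO and 10 µM JCP410 controls.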

Sequence of DPAP1 (Q8IIJ9 whole entry, looked up): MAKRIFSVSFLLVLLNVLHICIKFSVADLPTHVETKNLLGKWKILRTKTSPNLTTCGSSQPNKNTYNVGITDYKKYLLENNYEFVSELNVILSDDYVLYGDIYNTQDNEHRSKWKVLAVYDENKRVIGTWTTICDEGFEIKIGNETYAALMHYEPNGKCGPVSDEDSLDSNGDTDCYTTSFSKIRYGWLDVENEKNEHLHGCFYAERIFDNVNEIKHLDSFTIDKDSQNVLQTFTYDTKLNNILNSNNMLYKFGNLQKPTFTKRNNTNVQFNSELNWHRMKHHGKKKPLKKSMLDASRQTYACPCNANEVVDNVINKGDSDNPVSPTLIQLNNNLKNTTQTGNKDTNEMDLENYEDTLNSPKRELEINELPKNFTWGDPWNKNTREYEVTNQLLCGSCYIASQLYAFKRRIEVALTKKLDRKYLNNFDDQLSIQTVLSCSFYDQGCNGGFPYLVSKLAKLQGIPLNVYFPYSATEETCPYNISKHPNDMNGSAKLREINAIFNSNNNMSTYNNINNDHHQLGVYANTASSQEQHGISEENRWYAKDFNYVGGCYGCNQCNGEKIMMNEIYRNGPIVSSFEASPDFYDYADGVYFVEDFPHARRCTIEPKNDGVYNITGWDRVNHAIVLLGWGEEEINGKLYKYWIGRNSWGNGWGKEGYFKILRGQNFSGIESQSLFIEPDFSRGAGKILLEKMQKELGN

Row | Compound | % Inhibition @ 10 uM
1 | COc1ccc(-c2nc(NC3CCCCC3)sc2CCC(=O)O)cc1 | 2.62%
2 | Cc1ccccc1C(O)c1ccncc1 (centres unmarked) | 2.01%
3 | OC(c1ccccc1)c1nc2ccccc2n1CCc1ccccc1 (centres unmarked) | -2.92%
4 | CC(=O)C1=C(O)C=C(c2ccco2)CC1c1ccco1 (centres unmarked) | 1.57%
5 | COc1cccc(OCC(O)CN2C(C)CCCC2C)c1 (centres unmarked) | -12.5%
6 | O=C(O)CCCC(=O)N1CCN(c2ccc(F)cc2)CC1 | -6.51%
7 | CCC(C)(C)C1CCc2c(sc(N)c2C(N)=O)C1 (centres unmarked) | -0.436%
8 | OC1CCC(C2CC3CCC2C3)CC1O (centres unmarked) | -1.77%
9 | O=C(CSc1ccc(Cl)cc1)N1CCN(c2ccccc2F)CC1 | -15.2%
10 | O=S(=O)(c1ccc2nc(O)c(O)nc2c1)N1CCN(Cc2ccccc2)CC1 | -0.601%
11 | CC/N=C(\NS(=O)(=O)c1ccc(Cl)cc1)c1ccc(OC)cc1 | -0.0267%
12 | CCOC(=O)C1=CN(C(C)C)C=C(C(=O)OCC)C1c1cccc(Cl)c1 | 3.45%
13 | Cc1cc(C)nc(SCC(=O)Nc2ccccn2)n1 | -1.68%
14 | Oc1oc(-c2ccc(Br)cc2)nc1/C=N/c1nc2ccccc2s1 | 11.9%
15 | CC(C)COC(=O)N[C@@H](CC(C)C)C(=O)NCC#N | -2.35%
16 | COc1cccc(OC)c1C(=O)Nc1ccc(Br)cc1 | 4.75%
17 | Cc1nc2ccc(S(=O)(=O)NC(C(=O)NC3CCCCC3)c3ccccc3)cc2s1 (centres unmarked) | 4.33%
18 | COc1ccc(Cl)cc1C(=O)N(C)c1ccccc1 | -0.796%
19 | COC(F)(C(=O)Nc1c(-c2ccccc2)nc2ccccn12)C(F)(F)F (centres unmarked) | 4.11%
20 | Cc1nc2c(cc1C#N)C(=O)c1ccccc1-2 | -7.25%
21 | COCC(C)NC(=O)C1CC(c2cc(OC)ccc2OC)=NO1 (centres unmarked) | 2.65%
22 | CN(C)C(=O)C(Cc1ccccc1)N1C(=O)C2C3C=CC(C3)C2C1=O (centres unmarked) | 1.12%
23 | Cc1ccc(C2=N/C(=C\c3ccccc3C)C(=O)O2)cc1 | 1.25%
24 | CC(=O)c1c(C)oc2c(Cl)cc(NS(=O)(=O)c3cc(C)ccc3C)cc12 | -5.15%
25 | CO/C(O)=C1/C(C)=Nc2nc(O)nc(O)c2C1c1ccc(OCc2ccccc2)cc1 (centres unmarked) | 3.47%
26 | O=C(NC1CCCCC1)ON=C1c2ccccc2-c2ccccc21 | -5%
27 | COc1ccc(C(=O)/C(=C\c2ccco2)N2C=CC=CC2=C(C#N)C#N)cc1 | 2.7%
28 | O=C(Cn1cc(C(=O)C(F)(F)F)c2ccccc21)NCc1cccs1 | -4.97%
29 | CCCc1nc(N)c(C#N)c(-c2ccccc2Cl)c1CC | 4.51%
